Out of some 150,000 compounds screened, about 540 (0.36%) showed an effect of 50% or more. The list shows a part of the results.
The compounds below were run on Plasmodium falciparum (assay: Primary screen in NF54 nanoGlo assay, in single point, at 2uM, 72h; a lower Z score goes with more inhibition). Conditions: timepoint 72 hour.
Type: functional, Erythrocyte

| Compound | % Inhibition | Z score |
| --- | --- | --- |
| CN(CCOCCO)c1cccc(F)c1C#N | 2% | -0.26 |
| Cc1cccc(Nc2nc(C)c(C(=O)NCC3CC3)s2)n1 | -5% | 0.82 |
| COCCCNC(=O)c1ccc(Cn2c(=O)c3ccccc3n(Cc3c(C)cc(C)cc3C)c2=O)cc1 | -18% | 2.05 |
| CC1=C(c2ccc(C)cc2)S(=O)(=O)N=C1N1CCCN(C(=O)[C@H]2CCOC2)CC1 | -12% | 1.96 |
| Cc1ccc(C2=C[C@@H](c3ccc(Cl)cc3)n3nc(NC(=O)c4ccccc4)nc3N2)cc1 | 84% | -8.34 |
| Cc1ccc(NC(=O)CN2CCC[C@H](C)[C@@H]2CO)cc1C | -8% | 0.84 |
| C[C@H](Cc1cn(C)nn1)NS(=O)(=O)CC1(C)CC1(Cl)Cl (stereo not given in full) | -2% | 0.24 |
| Cc1cnc(N2CC(C)[S+]([O-])C(C)C2)s1 (stereo not given) | -14% | 1.26 |
| Cc1ccc(NC(=O)Nc2ccc(-c3nc4ccccc4s3)cc2C)cc1C | -9% | 1.08 |
| CC(=O)N1CCC2(CC1)C[C@@H](Cc1ccc(F)cc1)CCO2 | 19% | -2.12 |
| CC(C)S(=O)(=O)NC1=NCN(Cc2ccncc2)CN1 | -5% | 0.86 |
| CC(=O)N1CCN(c2ccc(OCCCOc3ccccc3)cc2)CC1 | -13% | 1.73 |
| O=C(c1cnc(C2CC2)nc1)N1CC(O)CC1c1ccccc1 (stereo not given) | -12% | 1.02 |
| CCn1cc(-c2cc(C(=O)N3CCCC[C@@H]3C)c3c(C)cc(C)cc3n2)cn1 | 21% | -2.71 |
| O=C(O)c1ccccc1CN1CC[C@H](c2ccccc2)[C@H](CO)C1 | -5% | 0.73 |
| Cc1cc(S(=O)(=O)NC(=O)CCC(C)C)c(C)o1 | 38% | -5.16 |
| COCCn1nnnc1[C@@H]1CN(CC(=O)N2CCc3ccccc32)CCO1 | -8% | 1.64 |
| Cc1cnc(CN2C[C@H](OC(C)C)[C@@H](O)C2)cn1 | -9% | 1.82 |
| CCO[C@@H](C)C(=O)NCCCc1ncc[nH]1 | -1% | 0.13 |
| O=C(NCCN1CCc2ccccc2C1=O)c1cc[nH]c1C1CC1 | -5% | 0.7 |
| N#Cc1nccnc1NCCc1cnn(-c2ccccc2)c1 | -8% | 1.25 |
| CCC1(CC)CCN(C(=O)Cc2ccc(-n3cnnc3)cc2)C1 | -4% | 0.83 |
| CCn1nccc1C(=O)N1CCOc2ccc(NC(=O)COC)cc2C1 | -5% | 0.99 |
| CC1(C)CN(Cc2ccccc2)CCC1NC(=O)N1CCOC(C#N)C1 (stereo not given) | -8% | 1.6 |
| Cn1c(=O)c2ccccc2n(CC(=O)Nc2ccc3c(c2)CCC3)c1=O | -5% | 0.78 |
| N#CCN[C@H](c1cc(F)ccc1F)C1CC1 | -11% | 1.54 |
| CC1(CNC(=O)C2CCCOC2)CCN(C(=O)C2CCCOC2)C1 (stereo not given) | 13% | -1.77 |
| CCCc1ccc(CN2CCC[C@@](O)(CN(C)C)C2)o1 | -3% | 0.53 |

| Compound | % Inhibition | Z score |
| --- | --- | --- |
| Cc1cc(CN2CCN(C(=O)c3ccc4[nH]ccc4c3)CC2)on1 | -11% | 2.07 |
| Cc1nnc(NC(=O)c2ccc(=O)n(Cc3ccc(Cl)cc3)c2)s1 | -15% | 1.84 |
| C[C@H](NCC(C)(C)C(N)=O)c1ccccc1N(C)C | -1% | 0.13 |
| O=C(CNC1(c2ccc(F)cc2)CCC1)NCc1ccco1 | -4% | 0.42 |
| COc1ccc([C@]23CCC(=O)N2c2ccccc2N3)cc1 | -15% | 1.61 |
| CC(C)C(NCC1CCCC(C)(C)C1)C(=O)O (stereo not given) | 28% | -3.11 |
| COc1ccc(CNC(=O)[C@H]2CCCN(Cc3ccco3)C2)c(F)c1F | -6% | 1.1 |
| CCCC1(CCC)NC(=O)N(CC(=O)NC)C1=O | -6% | 0.55 |
| CN(C)c1cccc(C(=O)N2CCNC[C@H]2C(=O)N2CCOCC2)c1 | -6% | 0.82 |
| COCCC(=O)N1CC[C@H](c2nc3ccccc3o2)C1 | -8% | 1.23 |
| O=C(Nc1ccc(N2CCc3sccc3C2)cc1)NC1CCCC1 | 2% | -0.3 |
| CC(C)(C)OCC(O)CN1CCCC1C(N)=O (stereo not given) | 1% | -0.08 |
| CC1CC(C(=O)N2CC3(CN(C)C(=O)O3)C2)CC(C)(C)C1 (stereo not given) | -5% | 0.67 |
| O=C(c1ccccc1)N1CCN(Cc2csc(-c3ccsc3)n2)CC1 | -4% | 0.76 |
| COc1ccc([C@H]2C[C@H]3CC[C@@H](C2)N3C(=O)c2cn3cccnc3n2)cc1 | 3% | -0.59 |
| Cc1nc(N2CCC[C@H](C(=O)NCC3CCCCC3)C2)nc2cc(S(C)(=O)=O)ccc12 | 12% | -1.67 |
| O=C(O)c1csc(CN2CCC(c3nc4c(s3)CCC4)CC2)c1 | -13% | 1.35 |
| CCOc1ccc(NC(=O)N[C@H]2CCN(c3ccc(F)c(C)c3)C2=O)cc1 | 2% | -0.24 |
| CO[C@H]1CN(C2CCN(C(=O)Nc3ccccc3F)CC2)[C@H]1c1ccncc1 | -11% | 1.41 |
| O=C1CN(C(=O)c2ccc3c(c2)OCCO3)CCN1 | 2% | -0.44 |
| O=C(NCc1ccncc1)C1(F)CCN(S(=O)(=O)c2cccc(F)c2)CC1 | -13% | 1.63 |
| CN(C(=O)Cn1cnc2c(nnn2C)c1=O)c1ccccc1 | -4% | 0.58 |
| C[C@@H](CC1CCCC1)C(=O)N1CCC(c2ncco2)CC1 | -8% | 0.76 |
| Cc1nc2c(c(N(C)C)n1)CCN(C(=O)c1cc(C)c3nc(N)sc3c1)C2 | 1% | -0.17 |
| CCCCn1c(NC(=O)c2ccccc2)c(S(=O)(=O)c2ccc(C)cc2)c2nc3ccccc3nc21 | 0% | -0.03 |
| Cc1ccc(C)c2sc(NCCN3CCOCC3)nc12 | -4% | 0.42 |
| Cn1cccc1CN(C(=O)c1c(F)cccc1F)C1CC1 | -7% | 1.43 |

— ChEMBL document CHEMBL4888484, “Replenishing the malaria drug discovery pipeline: Screening and hit evaluation of the MMV Hit Generation Library 1 (HGL1) against asexual blood stage Plasmodium falciparum ,using a nano luciferase reporter read-out” (2022)
